In the supplement of paper PMC12217912:
Some of the results follow. The full chains were built here from the parent and the listed change. Values near 0.05 are background.

B1: TEV protease; numbered along this chain (parent)
chain: MGESLFKGPRDYNPISSSICHLTNESDGHTTSLYGIGFGPFIITNKHLFRRNNGTLVVQSLHGVFKVKDTTTLQQHLVDGRDMIIIRMPKDFPPFPQKLKFREPQREERICLVTTNFQTKSMSSMVSDTSCTFPSGDGIFWKHWIQTKDGQCGSPLVSTRDGFIVGIHSASNFTNTNNYFTSVPKNFMELLTNQEAQQWVSGWRLNADSVLWGGHKVFMVKPEEPFQPVKEATQL

Variants of: B1
Assay: raw area under fraction-flipped curve 0-4 h after induction (AUC4h, not background-subtracted), DNA-recorder readout of cleavage of the substrate (dimensionless); higher = more cleavage of the substrate by the protease variant
Details: temperature: 34 °C; time window: 0-4 h after rhamnose induction
Method: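 In vivo DNA recorder in E. coli TOP10(DE3) ΔrhaA at 34 °C. Each TEVp single-site mutant (parent TEVp 0) is paired with a single-site variant of the 7-mer TEVs (canonical ENLYFQ|S). The substrate sits between flexible linkers in a Bxb1-sfGFP-TEVs-SsrA fusion, so cleavage stabilises Bxb1 and speeds flipping of a recombination array, read by NGS. The value is the raw area under the fraction-flipped curve over 0-4 h after rhamnose induction (AUC4h), with ≥20 reads per time point. It is not background-subtracted; inactive controls average about 0.047.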
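Further: Bxb1 expression induced with 0.2% (w/v) L-rhamnose at OD600 near 0.5, cultures sampled hourly, flipped fraction per protease–substrate barcode pair counted by paired-end Illumina sequencing.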

Variant	area with substrate ENLYFQA	area with substrate ENLYFQC	area with substrate ENLYFQD	area with substrate ENLYFQH	area with substrate ENLYFQI	area with substrate ENLYFQK	area with substrate ENLYFQL	area with substrate ENLYFQM	area with substrate ENLYFQP	area with substrate ENLYFQR	area with substrate ENLYFQS	area with substrate ENLYFQT	area with substrate ENLYFQV	area with substrate ENLYFQW	area with substrate ENLYFQG	area with substrate ENLYFQN	area with substrate ENLYFQQ	area with substrate ENLYFQE	area with substrate ENLYFQF	area with substrate ENLYFQY
I19H	0.0897	0.106	0.0573	0.0647	0.0476	0.0519	0.0591	0.0727	0.0423	0.0533	0.0941	0.0563	0.049	0.062	–	–	–	–	–	–
S26F	0.0519	0.0721	0.0746	0.0551	0.062	0.0645	0.0521	0.0807	0.0568	0.0603	0.0774	0.0777	0.0724	0.0615	0.0673	0.0624	0.0513	–	–	–
S26C	0.098	0.0865	0.0783	0.0741	0.0628	0.0541	0.0545	–	–	0.0649	0.0903	0.0593	0.0643	–	0.0874	0.063	0.067	0.0709	0.0593	0.0681
G39Q	0.0356	0.0512	–	0.0499	–	0.0422	0.0493	0.0351	–	0.0395	0.0447	0.0234	0.0678	–	0.0478	0.0441	0.0388	–	0.0172	0.0483
T23R	0.1	0.094	0.0938	0.0734	0.0599	0.0542	0.0636	0.0778	0.0476	0.0592	0.0949	0.0486	0.0679	0.0536	0.129	0.078	–	–	0.0725	0.0849
T23I	0.119	0.103	0.0766	0.147	0.057	0.0579	0.0728	0.0917	0.0649	0.0612	0.11	0.0796	0.0567	0.0741	–	0.0792	0.0823	–	0.0965	0.0712
L22W	0.0546	–	–	–	–	–	0.106	–	0.0424	–	0.0469	0.0504	0.0461	0.0366	0.0415	0.0512	–	–	0.0412	0.0401
L22K	0.0516	0.0444	0.047	0.0543	0.0406	0.0531	0.0485	–	0.047	0.0469	0.0472	0.049	0.0518	0.0409	0.0586	0.0422	–	–	0.0288	–
L22V	0.0769	0.123	0.0596	0.056	0.0538	0.0567	0.0662	0.0762	–	0.0626	0.0954	0.0625	0.0461	0.0714	0.0934	–	–	0.0639	–	0.0738
I36R	0.0395	0.0584	–	0.0369	0.0513	0.0576	0.0584	0.0518	–	0.0425	0.0481	0.0492	0.0447	0.0506	0.0506	0.0564	–	–	0.0581	–
I36E	0.0538	0.0509	0.0508	0.0473	0.0589	0.0744	0.0391	0.0467	0.0385	0.0511	0.0477	0.0482	0.0441	0.0515	0.0455	0.0429	0.055	–	–	0.0403
